Results published in article PMC4336329 (PLoS ONE, 2015).
Hit rate of the full screen: of about 310,000 compounds, about 2,200 (0.71%) showed an effect of 50% or more. Effects have a minus sign here. The list shows a part of the results.

biological target: human ether-à-go-go-related gene (hERG) potassium channel (human, UniProt Q12809); test: primary screen, population patch clamp on CHO cells stably expressing hERG
Sequence (Q12809 whole entry, looked up): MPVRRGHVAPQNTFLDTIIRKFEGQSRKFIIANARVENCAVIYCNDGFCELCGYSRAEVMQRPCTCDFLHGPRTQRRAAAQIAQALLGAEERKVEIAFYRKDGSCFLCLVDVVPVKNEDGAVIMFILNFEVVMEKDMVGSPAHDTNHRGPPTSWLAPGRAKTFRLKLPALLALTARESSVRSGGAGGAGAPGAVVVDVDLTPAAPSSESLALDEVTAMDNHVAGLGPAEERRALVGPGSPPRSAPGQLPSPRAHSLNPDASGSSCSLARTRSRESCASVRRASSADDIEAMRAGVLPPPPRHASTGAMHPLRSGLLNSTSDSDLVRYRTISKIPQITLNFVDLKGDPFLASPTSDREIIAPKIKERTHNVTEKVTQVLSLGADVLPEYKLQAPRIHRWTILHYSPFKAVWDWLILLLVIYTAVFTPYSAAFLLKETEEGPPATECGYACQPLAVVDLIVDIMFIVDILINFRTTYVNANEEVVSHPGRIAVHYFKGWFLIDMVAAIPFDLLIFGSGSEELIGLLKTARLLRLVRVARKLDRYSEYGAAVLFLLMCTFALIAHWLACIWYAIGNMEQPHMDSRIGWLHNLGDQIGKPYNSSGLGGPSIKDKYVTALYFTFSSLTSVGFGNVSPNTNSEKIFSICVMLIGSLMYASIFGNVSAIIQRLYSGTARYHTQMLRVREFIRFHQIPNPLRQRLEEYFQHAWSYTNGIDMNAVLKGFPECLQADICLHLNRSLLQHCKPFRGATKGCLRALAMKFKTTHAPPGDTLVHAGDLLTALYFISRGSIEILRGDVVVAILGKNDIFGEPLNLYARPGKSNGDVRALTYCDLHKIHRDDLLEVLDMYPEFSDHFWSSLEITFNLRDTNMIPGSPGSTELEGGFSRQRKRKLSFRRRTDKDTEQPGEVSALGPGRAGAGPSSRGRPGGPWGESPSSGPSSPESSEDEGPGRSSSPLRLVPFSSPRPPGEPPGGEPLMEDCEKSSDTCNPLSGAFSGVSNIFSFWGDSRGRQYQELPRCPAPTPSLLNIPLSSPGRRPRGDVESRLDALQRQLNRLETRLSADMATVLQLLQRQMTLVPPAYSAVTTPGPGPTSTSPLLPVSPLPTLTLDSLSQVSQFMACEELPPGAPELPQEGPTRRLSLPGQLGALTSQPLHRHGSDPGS

Row | Compound | hERG current change (%, negative = inhibition) at 1uM
1 | C=CCNC(=O)c1snnc1-c1ccccc1 | 4.1%
2 | COc1cccc(CNC(=O)N2CCN(c3ccccc3Cl)CC2)c1 | 10.1%
3 | Cc1ccccc1Nc1nc(-c2sc(NC(=O)c3ccco3)nc2C)cs1 | 14.8%
4 | C/C=C/c1ccc(OCCCN2C(=O)NC(C)(C)C2=O)c(OC)c1 | 12.9%
5 | N#C/C(=C\C=C\c1ccccc1[N+](=O)[O-])C(=O)NCc1ccccc1 | -1.37%
6 | COc1ccc(C(=O)NCC(=O)OCC(=O)N2CCCc3ccccc32)cc1 | 6.15%
7 | COc1ccc(-n2cnnc2SCC(=O)Nc2ccc(N3CCOCC3)cc2)cc1 | -5.01%
8 | O=C(c1ccco1)N1c2ccccc2Sc2ccccc21 | 15%
9 | Cc1ccc(C(Sc2ccccc2)C(Cn2cncn2)C(=O)c2ccccc2)cc1 (stereo not shown) | 16%
10 | CCN(CC)CCCNc1ccc(-c2nnc(-c3ccc(OCC(C)C)cc3)o2)cn1 | -0.619%
11 | CCOC(=O)c1sc(NC(=O)CCc2ccccc2)nc1C | 20.7%
12 | O=C(O)CNc1ccccc1C(=O)O | 7.1%
13 | CC(C)c1ccc(S(=O)(=O)N2CCC(C(=O)NCC3(N(C)C)CCCCC3)CC2)cc1 | -7.38%
14 | CCN(CC)C(=O)Cn1cc(SCC(=O)NC)c2ccccc21 | -10.2%
15 | O=C(c1cc2n(n1)C(C(F)(F)F)CC(c1ccc(F)cc1)N2)N1CCCC1 (stereo not shown) | 7.93%
16 | CC(=O)c1ccc(OCC(C)C)c(Cc2c(O)nc(N)[nH]c2=O)c1 | 10.2%
17 | O=C(C1CC1)N(CCN(Cc1ccccc1)C(=O)C1CC1)Cc1ccccc1 | -9.21%
18 | CCc1cc(=O)oc2cc(C)cc(OCC(=O)C(C)(C)C)c12 | 10.1%
19 | COC(=O)/C=C1\OC(c2ccccc2)=CC1=O | 6.38%
20 | Cc1cccc(CN2C3=NCCCN3c3ccccc32)c1.Cl | -16.9%

Row | Compound | hERG current change (%, negative = inhibition) at 1uM
21 | Cc1cccc(/C=C2\CCC(C3CCCC3)C2=O)c1 (stereo not shown) | -1.34%
22 | COC(=O)CN(C#N)c1nc(C)cc(C)n1 | 6.94%
23 | Cc1ccccc1C(=O)N1CCN(c2ccc(NC(=O)c3cccnc3Cl)cc2)CC1 | 13.8%
24 | CCOc1ccc(NC(=O)c2ccc(Cn3nc(C)cc3C)o2)cc1 | 8.02%
25 | COc1ccc(C(=O)C[N+]2(C)CCOCC2)cc1.[I-] | 2.43%
26 | Cc1ccccc1OCCOC(=O)c1cc(S(=O)(=O)N2CCCCC2)ccc1N1CCOCC1 | 4.95%
27 | CN1CCC2(CC1)C(C#N)=C(N)NC(S)=C2C#N | 7.91%
28 | CCOCCCNC(=S)N1CCN(c2nc(-c3ccc(F)cc3)cs2)CC1 | 15.5%
29 | COc1cc(OC)cc(-c2nc3cc(C)ccc3o2)c1 | -12.3%
30 | COc1ccc(C(=O)CN2C(=O)NC3(CCc4ccccc43)C2=O)cc1 (stereo not shown) | 0.286%
31 | CCCCn1c(N)c(N(CCOC)C(=O)C2CC(=O)N(c3cccc(SC)c3)C2)c(=O)[nH]c1=O (stereo not shown) | 16.9%
32 | O=S(=O)(c1cccc2cccnc12)N1CCc2ccccc21 | 9.78%
33 | CCOC(=O)NC1(C(F)(F)F)C(=O)N(Cc2ccccn2)C2=C1C(=O)CC(C)(C)C2 (stereo not shown) | 22.1%
34 | O=C(c1ccc2nccnc2c1)N1CCN(Cc2ccc3c(c2)OCO3)CC1 | 8.04%
35 | Cc1cc(S(=O)(=O)NCc2ccco2)c(C)s1 | 8.32%
36 | CCOC(=O)C1CCCN(c2c(C(=O)c3ccccc3)cnc3ccc(OC)cc23)C1 (stereo not shown) | 3.13%
37 | C=C(C)CCC1(C)NC(=O)N(c2ccccc2)N1 (stereo not shown) | -5.43%
38 | CC1CN(CCCOc2ccc([N+](=O)[O-])cc2)CC(C)O1.O=C(O)C(=O)O (stereo not shown) | -59.6%
39 | CCN(CC)C(=O)CSc1nc2ccc(NC(=O)CSc3nnc(N)s3)cc2s1 | 6.59%
40 | O=C(N1CCCCC1)N1CCN(C(=O)N2CCCCC2)CC1 | 17.2%

Row | Compound | hERG current change (%, negative = inhibition) at 1uM
41 | Cc1ccc([N+](=O)[O-])c(OCc2ncc(Cl)n2C)c1 | 11.9%
42 | O=C(NCC1CCN(Cc2ccccc2Cl)CC1)Nc1ccccc1F | -6.32%
43 | Cc1cc(C(=O)N2CCCC(N3CCN(c4ccccc4C)CC3)C2)n(C)n1 (stereo not shown) | -87.7%
44 | Cc1ccc(NCCC#N)cc1C | 6.9%
45 | Cc1ccc(N(C(C)C(=O)NCc2ccncc2)S(C)(=O)=O)cc1C (stereo not shown) | 9.25%
46 | Cc1[nH]nc(N=CC2=C(O)CC(c3ccco3)CC2=O)c1-c1ccccc1 (stereo not shown) | 19.8%
47 | O=C1CCCC(O)=C1N=Nc1c(Cl)cc(Cl)cc1Cl | 18.8%
48 | CC(C)C(c1nnnn1C1CCCC1)N1CCCCC1.Cl (stereo not shown) | 16.5%
49 | CC(c1ccccc1)N1CC(C(=O)N2CCN(c3ccccc3)CC2)CC1=O (stereo not shown) | -7.58%
50 | COc1ccc(NC(=O)CCc2nc3ccccc3[nH]2)cc1 | 7.35%
51 | CC1CCN(c2ccc(NC(=O)C3CCCN3S(=O)(=O)c3ccc(F)cc3)cc2)CC1 (stereo not shown) | 5.75%
52 | CCOC(=O)Cn1c(=O)oc2cc(S(=O)(=O)NCC3CCCO3)ccc21 (stereo not shown) | 4.16%
53 | CN(C)c1ccc(C(=O)/C=C/c2ccco2)cc1 | 12.4%
54 | CCC(=O)N1CCc2cc(Br)cc(S(=O)(=O)CC(=O)OC)c21 | 15.3%
55 | COc1ccc(-n2nc(C(=O)NCC(=O)N3CCOCC3)c3ccccc3c2=O)cc1OC | 3.31%
56 | COc1ccc(-c2csc(Nc3ncccc3C)n2)cc1 | -7.99%
57 | Cc1ccc(NC(=O)c2nc[nH]c2C(=O)N2CCN(C(=O)OC(C)(C)C)CC2)cc1 | -2.67%
58 | COc1ccccc1-c1cc(C(=O)N/N=C\c2cn(C)nc2C)c2ccccc2n1 | 9.11%
